The supplement of paper PMC7826260
The other results are listed elsewhere or left out. One pool of 16,384 single-stranded DNAs met each Rep nickase domain in vitro at 3 µM enzyme and 37 °C for 1 h; the strands have 90 letters, of which the middle is given. The score is log2 (uncut reads / reads without enzyme); strong cutting gives strongly negative numbers. There is no active / inactive call. Counts are relative to all reads; uncut strands gain when others are lost, and binding without cutting may add a little.

Columns and labels:
Test in all cases: uncleaved DNA left, log2 of reads against the no-enzyme library (log2 ratio); higher = less cleavage (more negative = more Rep cleavage of the k-mer); sequences stand for … in CTCGTCCG…ACCGGAGA
[1] = system: T1, Rep nickase domain of Muscovy duck circovirus
T1 sequence (residues 1-111, tag not shown): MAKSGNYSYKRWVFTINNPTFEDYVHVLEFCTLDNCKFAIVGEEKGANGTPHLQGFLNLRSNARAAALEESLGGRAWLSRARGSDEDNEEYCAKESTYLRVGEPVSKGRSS
Description: (§1)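 A pool of 90-nt single-stranded DNAs with seven random bases just before the constant AC of the nick site (name = the seven bases) was cut by 3 µM recombinant His6-SUMO-tagged Rep nickase domain (300 nM DNA, 50 mM HEPES pH 8.0, 50 mM NaCl, 1 mM MnCl2, 1 h, 37 °C, three replicates). Uncut DNA was amplified and sequenced.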

[2] = system: T2, Rep nickase domain of banana bunchy top virus
T2 sequence (residues 1-94, tag not shown): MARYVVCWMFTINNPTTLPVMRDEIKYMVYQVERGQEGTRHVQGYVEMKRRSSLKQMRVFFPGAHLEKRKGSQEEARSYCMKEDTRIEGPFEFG
Description: as §1

[3] = system: T3, Rep nickase domain of cabbage leaf curl virus
T3 sequence (residues 1-116, tag not shown): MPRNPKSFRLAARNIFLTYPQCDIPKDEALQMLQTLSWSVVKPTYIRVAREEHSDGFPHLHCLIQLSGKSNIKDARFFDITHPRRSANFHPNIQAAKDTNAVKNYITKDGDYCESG
Description: as §1

[4] = system: T4, Rep nickase domain of chickpea chlorotic dwarf virus
T4 sequence (residues 1-124, tag not shown): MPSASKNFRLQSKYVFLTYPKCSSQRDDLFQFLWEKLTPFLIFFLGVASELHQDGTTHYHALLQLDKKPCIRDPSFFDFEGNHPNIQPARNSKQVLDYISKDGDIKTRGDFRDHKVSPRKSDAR
Description: as §1

[5] = system: T5, Rep nickase domain of faba bean necrotic yellows virus
T5 sequence (residues 1-98, tag not shown): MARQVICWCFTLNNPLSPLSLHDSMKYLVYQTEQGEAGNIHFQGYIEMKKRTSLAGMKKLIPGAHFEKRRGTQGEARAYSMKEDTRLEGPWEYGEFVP
Description: as §1

[6] = system: T6, Rep nickase domain of maize striate mosaic virus
T6 sequence (residues 1-117, tag not shown): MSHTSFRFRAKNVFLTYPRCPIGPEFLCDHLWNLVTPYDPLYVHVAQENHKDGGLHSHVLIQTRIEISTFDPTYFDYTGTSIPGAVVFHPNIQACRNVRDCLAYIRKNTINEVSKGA
Description: as §1

[7] = system: T7, Rep nickase domain of porcine circovirus 2
T7 sequence (residues 2-116, tag not shown): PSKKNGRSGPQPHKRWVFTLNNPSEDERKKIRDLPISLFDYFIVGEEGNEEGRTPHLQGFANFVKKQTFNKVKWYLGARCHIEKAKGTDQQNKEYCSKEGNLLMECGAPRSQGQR
Description: as §1

[8] = system: T8, Rep nickase domain of tomato golden mosaic virus
T8 sequence (residues 1-124, tag not shown): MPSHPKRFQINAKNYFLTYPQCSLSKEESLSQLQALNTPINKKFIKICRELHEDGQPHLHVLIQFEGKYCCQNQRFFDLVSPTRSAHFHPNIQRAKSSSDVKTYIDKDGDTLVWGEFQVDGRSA
Description: as §1

[9] = system: T9, Rep nickase domain of tomato yellow leaf curl virus
T9 sequence (residues 1-136, tag not shown): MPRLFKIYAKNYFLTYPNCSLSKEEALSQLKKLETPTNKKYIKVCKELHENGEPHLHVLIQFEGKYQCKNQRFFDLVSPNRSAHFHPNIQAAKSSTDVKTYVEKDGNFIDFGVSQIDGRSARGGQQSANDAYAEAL
Description: as §1

[10] = system: T10, Rep nickase domain of wheat dwarf virus
T10 sequence (residues 1-137, tag not shown): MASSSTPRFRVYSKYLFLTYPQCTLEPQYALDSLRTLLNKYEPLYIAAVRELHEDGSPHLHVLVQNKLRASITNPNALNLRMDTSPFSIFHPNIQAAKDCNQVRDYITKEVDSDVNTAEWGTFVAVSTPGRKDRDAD
Description: as §1

| Sequence | uncleaved DNA left (log2) [1] | uncleaved DNA left (log2) [2] | uncleaved DNA left (log2) [3] | uncleaved DNA left (log2) [4] | uncleaved DNA left (log2) [5] | uncleaved DNA left (log2) [6] | uncleaved DNA left (log2) [7] | uncleaved DNA left (log2) [8] | uncleaved DNA left (log2) [9] | uncleaved DNA left (log2) [10] |
| --- | --- | --- | --- | --- | --- | --- | --- | --- | --- | --- |
| ATTCGCG | -0.119 | -0.0561 | -0.417 | 1.12 | 0.0114 | 0.202 | 0.0383 | -0.0753 | -0.00488 | 0.0211 |
| CCAGTTA | 0.115 | -0.13 | -0.164 | -1.14 | -0.107 | -0.574 | -0.0176 | -0.0126 | -0.147 | -0.0781 |
| AGGAGGC | 0.00965 | -0.00913 | 0.175 | 0.415 | 0.034 | -0.107 | 0.225 | -0.0699 | -0.107 | -0.000803 |
| CTCTTGC | -0.1 | -0.0367 | -0.896 | -0.696 | -0.081 | -1.34 | -0.0172 | -0.189 | -0.233 | -0.112 |
| CCCATGT | -0.00685 | 0.0425 | -0.149 | -0.407 | -0.0602 | -1 | -0.0364 | -0.164 | -0.122 | -0.0707 |
| TTATAAA | -0.0272 | -0.109 | 0.0743 | 0.0438 | -0.105 | -0.149 | -0.014 | -0.0609 | -0.109 | -0.0656 |
| CCGAAGT | 0.00367 | 0.0513 | 0.127 | 0.0721 | 0.113 | -0.134 | -0.039 | 0.163 | -0.0515 | 0.044 |
| TTGCAGA | -0.03 | -0.151 | -0.68 | -0.628 | -0.0248 | -1.17 | 0.0415 | -0.0909 | 0.0955 | -0.0774 |
| CGTTGCT | -0.282 | -0.216 | -0.923 | -0.973 | -0.115 | -1.12 | -0.318 | -0.317 | -0.112 | -0.364 |
| CGCTTAG | 0.17 | -0.0263 | -0.362 | -0.173 | 0.171 | -0.925 | 0.251 | 0.143 | 0.156 | 0.127 |
| AGCTCAC | 0.0359 | -0.0456 | -0.102 | 0.00523 | -0.168 | -0.271 | -0.261 | -0.0682 | -0.0966 | 0.038 |
| GCAGTTG | -0.159 | -0.12 | -0.445 | -0.194 | -0.0351 | -0.8 | -0.147 | 0.0135 | -0.0923 | -0.134 |
| GCACTTT | 0.0899 | 0.0229 | -0.0115 | -1.33 | -0.0668 | 0.0321 | -0.0901 | -0.105 | 0.0376 | -0.103 |
| AAGAATG | 0.0596 | -0.0379 | 0.0825 | 0.608 | 0.0631 | 1.24 | 0.06 | 0.0207 | -0.09 | 0.000385 |
| ATGCGCG | -0.0643 | -0.0918 | -0.712 | 0.0967 | 0.115 | -0.881 | 0.111 | 0.102 | -0.0429 | -0.228 |
| CTCATGG | -0.0344 | -0.0131 | -0.0996 | 0.317 | -0.0115 | -0.437 | 0.125 | 0.0106 | -0.00677 | 0.0222 |
| ACTAGAA | 0.0702 | -0.0199 | -0.0541 | 0.114 | 0.0755 | -0.723 | 0.0574 | 0.178 | -0.0294 | 0.0992 |
| CCTTAAA | 0.0451 | 0.00818 | -0.0269 | -0.294 | 0.141 | -0.72 | 0.0214 | -0.0467 | 0.0734 | 0.113 |
| CTCGGAC | -0.0479 | -0.0751 | 0.356 | 1.11 | 0.0778 | 1.23 | 0.0537 | 0.143 | -0.0373 | 0.0361 |
| CGAGCCC | 0.0259 | -0.0461 | 0.136 | 0.308 | 0.0228 | 0.22 | -0.142 | -0.00143 | -0.0766 | 0.000718 |
| ATTCTTC | 0.131 | -0.0427 | 0.0926 | -0.363 | 0.109 | -0.686 | 0.138 | 0.0841 | 0.00745 | 0.0246 |
| GGTCCGG | -0.0012 | 0.147 | 0.681 | 1.64 | 0.0193 | 2.16 | 0.092 | 0.0217 | 0.0501 | 0.0486 |
| GGTAGGC | -0.0436 | -0.0142 | 0.522 | 1.3 | -0.0445 | 1.65 | 0.0964 | -0.0787 | -0.0576 | -0.0244 |
| GCATTCC | 0.0671 | 0.055 | 0.625 | 1.35 | 0.0437 | 1.47 | 0.174 | -0.0326 | 0.0584 | 0.19 |
| ACTACAG | 0.00037 | 0.14 | -0.748 | -0.846 | 0.132 | -1.16 | 0.22 | 0.0702 | 0.112 | 0.00421 |
| TTGACAA | 0.0524 | -0.000746 | 0.397 | 0.997 | -0.148 | 1.24 | 0.0795 | 0.00658 | 0.0342 | 0.0336 |
| TGTGATC | -0.0232 | -0.109 | 0.294 | 0.533 | -0.125 | 0.766 | -0.0666 | -0.106 | -0.0722 | -0.0823 |
| TGGTATG | -0.0554 | -0.0404 | -0.286 | -0.188 | -0.0935 | -0.493 | 0.0549 | -0.0797 | -0.102 | -0.126 |
| CTGAACT | 0.0113 | -0.0318 | 0.103 | -1.12 | 0.0332 | 0.541 | 0.0512 | 0.0335 | -0.00779 | 0.116 |
| GTCGGTA | 0.13 | 0.162 | 0.361 | 0.877 | 0.0439 | 1.49 | 0.0643 | 0.0227 | 0.13 | 0.0915 |
